The results in this text go back to paper PMC6962326.

By UniProt entry, the sequences of proteins in these tests, tags left out. Where a name states a change or a piece, a line headed by the entry shows the natural chain unless it says otherwise.
UniProt P10238: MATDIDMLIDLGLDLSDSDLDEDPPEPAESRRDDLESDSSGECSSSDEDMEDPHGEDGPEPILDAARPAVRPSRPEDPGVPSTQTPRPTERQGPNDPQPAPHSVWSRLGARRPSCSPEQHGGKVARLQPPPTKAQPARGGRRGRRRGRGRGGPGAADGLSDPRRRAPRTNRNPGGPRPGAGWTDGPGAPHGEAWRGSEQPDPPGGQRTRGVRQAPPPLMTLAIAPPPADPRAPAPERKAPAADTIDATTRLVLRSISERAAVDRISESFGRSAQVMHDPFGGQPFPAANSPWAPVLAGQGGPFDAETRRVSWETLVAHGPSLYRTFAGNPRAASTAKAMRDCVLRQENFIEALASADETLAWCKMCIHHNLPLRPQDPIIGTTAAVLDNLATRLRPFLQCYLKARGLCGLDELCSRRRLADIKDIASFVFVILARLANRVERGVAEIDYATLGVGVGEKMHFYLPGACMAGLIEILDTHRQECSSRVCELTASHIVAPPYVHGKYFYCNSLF
UniProt Q05048: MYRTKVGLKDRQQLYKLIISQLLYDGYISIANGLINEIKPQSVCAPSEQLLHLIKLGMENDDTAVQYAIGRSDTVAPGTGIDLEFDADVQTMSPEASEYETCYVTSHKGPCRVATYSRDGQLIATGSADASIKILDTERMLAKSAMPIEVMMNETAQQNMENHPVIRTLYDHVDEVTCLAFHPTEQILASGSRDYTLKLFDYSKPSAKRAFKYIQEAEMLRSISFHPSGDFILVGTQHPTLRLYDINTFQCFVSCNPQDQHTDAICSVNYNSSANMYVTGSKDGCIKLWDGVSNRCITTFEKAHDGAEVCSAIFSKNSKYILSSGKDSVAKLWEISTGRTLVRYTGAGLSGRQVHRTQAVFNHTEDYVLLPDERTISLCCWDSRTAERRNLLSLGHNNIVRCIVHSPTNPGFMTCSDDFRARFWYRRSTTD
UniProt O95639: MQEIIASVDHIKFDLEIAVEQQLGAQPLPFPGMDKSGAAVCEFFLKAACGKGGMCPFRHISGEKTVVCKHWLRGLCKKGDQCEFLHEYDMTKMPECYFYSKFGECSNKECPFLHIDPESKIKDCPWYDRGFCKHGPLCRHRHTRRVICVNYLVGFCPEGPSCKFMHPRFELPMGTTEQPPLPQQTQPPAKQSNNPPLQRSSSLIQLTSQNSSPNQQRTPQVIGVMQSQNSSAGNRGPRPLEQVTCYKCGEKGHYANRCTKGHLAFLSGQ

The labels stand for the following.
B1: recombinant CPSF73 (protein, UniProt Q9UKF6 1-684)
chain: MSAIPAEESDQLLIRPLGAGQEVGRSCIILEFKGRKIMLDCGIHPGLEGMDALPYIDLIDPAEIDLLLISHFHLDHCGALPWFLQKTSFKGRTFMTHATKAIYRWLLSDYVKVSNISADDMLYTETDLEESMDKIETINFHEVKEVAGIKFWCYHAGHVLGAAMFMIEIAGVKLLYTGDFSRQEDRHLMAAEIPNIKPDILIIESTYGTHIHEKREEREARFCNTVHDIVNRGGRGLIPVFALGRAQELLLILDEYWQNHPELHDIPIYYASSLAKKCMAVYQTYVNAMNDKIRKQININNPFVFKHISNLKSMDHFDDIGPSVVMASPGMMQSGLSRELFESWCTDKRNGVIIAGYCVEGTLAKHIMSEPEEITTMSGQKLPLKMSVDYISFSAHTDYQQTSEFIRALKPPHVILVHGEQNEMARLKAALIREYEDNDEVHIEVHNPRNTEAVTLNFRGEKLAKVMGFLADKKPEQGQRVSGILVKRNFNYHILSPCDLSNYTDLAMSTVKQTQAIPYTGPFNLLCYQLQKLTGDVEELEIQEKPALKVFKNITVIQEPGMVVLEWLANPSNDMYADTVTTVILEVQSNPKIRKGAVQKVSKKLEMHVYSKRLEIMLQDIFGEDCVSVKDDSILSVTVDGKTANLNLETRTVECEEGSEDDESLREMVELAAQRLYEALTPVH
B2: recombinant Fip1 (protein, UniProt Q6UN15 1-594)
chain: MSAGEVERLVSELSGGTGGDEEEEWLYGGPWDVHVHSDLAKDLDENEVERPEEENASANPPSGIEDETAENGVPKPKVTETEDDSDSDSDDDEDDVHVTIGDIKTGAPQYGSYGTAPVNLNIKTGGRVYGTTGTKVKGVDLDAPGSINGVPLLEVDLDSFEDKPWRKPGADLSDYFNYGFNEDTWKAYCEKQKRIRMGLEVIPVTSTTNKITAEDCTMEVTPGAEIQDGRFNLFKVQQGRTGNSEKETALPSTKAEFTSPPSLFKTGLPPSRNSTSSQSQTSTASRKANSSVGKWQDRYGRAESPDLRRLPGAIDVIGQTITISRVEGRRRANENSNIQVLSERSATEVDNNFSKPPPFFPPGAPPTHLPPPPFLPPPPTVSTAPPLIPPPGFPPPPGAPPPSLIPTIESGHSSGYDSRSARAFPYGNVAFPHLPGSAPSWPSLVDTSKQWDYYARREKDRDRERDRDRERDRDRDRERERTRERERERDHSPTPSVFNSDEERYRYREYAERGYERHRASREKEERHRERRHREKEETRHKSSRSNSRRRHESEEGDSHRRHKHKKSKRSKEGKEAGSEPAPEQESTEATPAE
B3: CPSF73, endogenous (protein, UniProt Q9UKF6 1-684)
chain: B1 chain
B4: CPSF160, endogenous (protein, UniProt Q10570 1-1443)
chain: MYAVYKQAHPPTGLEFSMYCNFFNNSERNLVVAGTSQLYVYRLNRDAEALTKNDRSTEGKAHREKLELAASFSFFGNVMSMASVQLAGAKRDALLLSFKDAKLSVVEYDPGTHDLKTLSLHYFEEPELRDGFVQNVHTPRVRVDPDGRCAAMLVYGTRLVVLPFRRESLAEEHEGLVGEGQRSSFLPSYIIDVRALDEKLLNIIDLQFLHGYYEPTLLILFEPNQTWPGRVAVRQDTCSIVAISLNITQKVHPVIWSLTSLPFDCTQALAVPKPIGGVVVFAVNSLLYLNQSVPPYGVALNSLTTGTTAFPLRTQEGVRITLDCAQATFISYDKMVISLKGGEIYVLTLITDGMRSVRAFHFDKAAASVLTTSMVTMEPGYLFLGSRLGNSLLLKYTEKLQEPPASAVREAADKEEPPSKKKRVDATAGWSAAGKSVPQDEVDEIEVYGSEAQSGTQLATYSFEVCDSILNIGPCANAAVGEPAFLSEEFQNSPEPDLEIVVCSGHGKNGALSVLQKSIRPQVVTTFELPGCYDMWTVIAPVRKEEEDNPKGEGTEQEPSTTPEADDDGRRHGFLILSREDSTMILQTGQEIMELDTSGFATQGPTVFAGNIGDNRYIVQVSPLGIRLLEGVNQLHFIPVDLGAPIVQCAVADPYVVIMSAEGHVTMFLLKSDSYGGRHHRLALHKPPLHHQSKVITLCLYRDLSGMFTTESRLGGARDELGGRSGPEAEGLGSETSPTVDDEEEMLYGDSGSLFSPSKEEARRSSQPPADRDPAPFRAEPTHWCLLVRENGTMEIYQLPDWRLVFLVKNFPVGQRVLVDSSFGQPTTQGEARREEATRQGELPLVKEVLLVALGSRQSRPYLLVHVDQELLIYEAFPHDSQLGQGNLKVRFKKVPHNINFREKKPKPSKKKAEGGGAEEGAGARGRVARFRYFEDIYGYSGVFICGPSPHWLLVTGRGALRLHPMAIDGPVDSFAPFHNVNCPRGFLYFNRQGELRISVLPAYLSYDAPWPVRKIPLRCTAHYVAYHVESKVYAVATSTNTPCARIPRMTGEEKEFETIERDERYIHPQQEAFSIQLISPVSWEAIPNARIELQEWEHVTCMKTVSLRSEETVSGLKGYVAAGTCLMQGEEVTCRGRILIMDVIEVVPEPGQPLTKNKFKVLYEKEQKGPVTALCHCNGHLVSAIGQKIFLWSLRASELTGMAFIDTQLYIHQMISVKNFILAADVMKSISLLRYQEESKTLSLVSRDAKPLEVYSVDFMVDNAQLGFLVSDRDRNLMVYMYLPEAKESFGGMRLLRRADFHVGAHVNTFWRTPCRGATEGLSKKSVVWENKHITWFATLDGGIGLLLPMQEKTYRRLLMLQNALTTMLPHHAGLNPRAFRMLHVDRRTLQNAVRNVLDGELLNRYLYLSTMERSELAKKIGTTPDIILDDLLETDRVTAHF
B5: CPSF100, endogenous (protein, UniProt Q9P2I0 1-782)
chain: MTSIIKLTTLSGVQEESALCYLLQVDEFRFLLDCGWDEHFSMDIIDSLRKHVHQIDAVLLSHPDPLHLGALPYAVGKLGLNCAIYATIPVYKMGQMFMYDLYQSRHNTEDFTLFTLDDVDAAFDKIQQLKFSQIVNLKGKGHGLSITPLPAGHMIGGTIWKIVKDGEEEIVYAVDFNHKREIHLNGCSLEMLSRPSLLITDSFNATYVQPRRKQRDEQLLTNVLETLRGDGNVLIAVDTAGRVLELAQLLDQIWRTKDAGLGVYSLALLNNVSYNVVEFSKSQVEWMSDKLMRCFEDKRNNPFQFRHLSLCHGLSDLARVPSPKVVLASQPDLECGFSRDLFIQWCQDPKNSIILTYRTTPGTLARFLIDNPSEKITEIELRKRVKLEGKELEEYLEKEKLKKEAAKKLEQSKEADIDSSDESDIEEDIDQPSAHKTKHDLMMKGEGSRKGSFFKQAKKSYPMFPAPEERIKWDEYGEIIKPEDFLVPELQATEEEKSKLESGLTNGDEPMDQDLSDVPTKCISTTESIEIKARVTYIDYEGRSDGDSIKKIINQMKPRQLIIVHGPPEASQDLAECCRAFGGKDIKVYMPKLHETVDATSETHIYQVRLKDSLVSSLQFCKAKDAELAWIDGVLDMRVSKVDTGVILEEGELKDDGEDSEMQVEAPSDSSVIAQQKAMKSLFGDDEKETGEESEIIPTLEPLPPHEVPGHQSVFMNEPRLSDFKQVLLREGIQAEFVGGVLVCNNQVAVRRTETGRIGLEGCLCQDFYRIRDLLYEQYAIV
B6: Fip1, endogenous (protein, UniProt Q6UN15 1-594)
chain: B2 chain

These are yes or no findings as the source states them, for the method shown. For some assays here: Binding seen in cells or lysates may run through a third protein. Some binding calls cover weakened binding; strength is not graded here.

The first experiment addresses GST-ICP27 (herpes simplex virus-1) (UniProt P10238). Description: pull-down; GST pulldown with purified recombinant GST-ICP27 and recombinant Fip1, CPSF73 and CstF complex; input and pulldown analysed by western blotting; both purified.
As to “recombinant CstF complex (from UniProt Q05048 1-431; P33240 1-577; Q12996 1-717)”, the binding entry is recorded as “no binding”.

For the molecule B1, the binding result is “binds”.

Consider B2, for which the binding entry was “binds”.

The target in a further experiment is HSV-1 immediate early protein ICP27, expressed from wild-type HSV-1 in infected cells (herpes simplex virus-1 (KOS)) (UniProt P10238). The experiment is described as follows: co-IP; anti-ICP27 antibody (P1119) and protein G magnetic beads on lysates of cells infected with WT HSV-1 (KOS), harvested at different times post-infection; IP buffer 150 mM NaCl, 10 mM Tris-HCl pH 7.4, 1 mM EDTA, 1% Triton X-100, 0.5% NP-40, RNase A/T1; 4 h at 4 °C; western blotting.
For “CPSF30, endogenous (from UniProt O95639 1-269)”, the binding entry is reported as “binds”.

B3: the binding result is on record as “binds”.

As to B4, the binding entry is “binds”.

As for B5, the binding entry was “binds”.

Take B6: the binding result is listed as “binds”.
